ChEMBL document CHEMBL4888484, “Replenishing the malaria drug discovery pipeline: Screening and hit evaluation of the MMV Hit Generation Library 1 (HGL1) against asexual blood stage Plasmodium falciparum ,using a nano luciferase reporter read-out” (2022)
About 410 (8.5%) of roughly 4,800 compounds showed an effect of 50% or more. Some of the results follow.

These molecules were tested on Plasmodium falciparum (assay: Confirmatory screen in NF54 pLDH assay, in single point, at 2uM, 72h). Settings: timepoint 72 hour.
Assay type: functional, Erythrocyte

Compound	% Inhibition [%]
O=C(c1cncnc1)N1C[C@H]2CCCC(=O)N(Cc3ccccc3)[C@H]2C1	7
Cc1ccc(Cl)c(OCn2ccc(C(=O)Nc3ccc(Br)cn3)n2)c1	-22
Cc1cc(N2CC(OCc3ccccc3)C2)nc(Nc2cccc(O)c2)n1	96
Cc1cnc(N2CCCC2C2CCCO2)s1 (stereo not given)	-18
COc1ccccc1[C@@H]1C=C(c2cccnc2)Nc2ncnn21	-13
O=C(O)c1cc(N2CCC(Cc3ccccc3)CC2)ccc1NC(=O)C1CCC1	-7
Cc1ccc(Cl)c(OC(C)C(=O)N2C3CCC2CC(O)(Cc2ccc(F)cc2F)C3)c1 (stereo not given)	11
C[C@H]1[C@@H]2[C@@H](O)C([C@H](C)C(=O)NC3CCCC3)CC[C@@]2(C)CC[C@@H]1NC(=O)c1ccc(C#N)cc1 (stereo not given in full)	-10
Cn1cc(NC(=O)Nc2cccc(OCC(F)F)n2)cn1	-7
CN(C)c1ccc(NC(=O)C(C2CC=CCC2)N(Cc2nc(-c3ccccc3)cs2)C(=O)Cn2nnc3ccccc32)cc1 (stereo not given)	1
Cc1nn(-c2ccccc2)c(C)c1C(=O)Nc1cccc(N2CCCC2=O)c1	-8
CNC(=O)Nc1cc(C)cc2c(-c3ccccc3)c(C(=O)NCc3cccc(F)c3)[nH]c12	7
CCC(C)(CC)[C@@](O)(C#CC[N+]1(Cc2ccccc2Cl)CCCCC1)c1ccccc1	10
Cn1ncc2c(NCCO)nc(N3CCCCCC3)nc21	12
Cc1cc(N2CCC3(CCCN3Cc3cc(C#N)n(C)c3C)CC2)c2ccccc2n1	15
CC(C)(C)CCN1CCN(S(=O)(=O)C[C@H]2CCCS(=O)(=O)C2)CC1	6
CC(C)NC(=O)c1ccc(CN2C(=O)COc3ccc(C(=O)COc4ccc(F)c(F)c4)cc32)o1	1
CN(C)CCOC(=O)CC[C@H]1CCOC(C)(C)C1	4
O=C(O)COc1ccccc1[C@H]1CC(O)=Nc2cccc3c2c1cn3Cc1cccc(F)c1	8
Fc1ccc(OCc2nccc(-c3ccc4c(c3)OCO4)n2)cc1	13
O=C(N[C@@H](Cc1ccccc1)C(=O)OCc1cnc(-c2ccccc2)o1)c1ccccc1	13
O=S1(=O)CCN(C2CCN(Cc3c(F)cccc3F)CC2)CC1	14
COCCCn1c(=O)c2ccccc2n(CC(=O)N(C)c2ccccc2)c1=O	-25
Cc1cc(C)c(NC(=O)c2nnn(CC(=O)NCc3ccc(F)cc3)c2C)c(C)c1	-10
Cn1nccc1CCNS(=O)(=O)c1c[nH]c2cccc(F)c12	10

Compound	% Inhibition [%]
Cc1ccc(-c2csc(NC(=O)c3cccc(C(=O)Nc4nc(-c5ccc(C)cc5C)cs4)n3)n2)c(C)c1	-7
CC1CCC(c2noc([C@H]3CCO[C@@H]3c3cncc(Br)c3)n2)CC1 (stereo not given in full)	59
COc1cc(NC(=O)N[C@@H](C)C(=O)N2CCc3ccccc32)cc(OC)c1	11
COc1cccc(C2C(NC(=O)c3ccoc3)CCN2C2CC2)c1 (stereo not given)	-16
Cc1ccccc1[C@H](CC(=O)O)NC(=O)C(F)(F)F	16
S=c1cc(-c2ccccc2)n(Cc2ccco2)c2c1CCCC2	43
OCCCN1c2ccccc2Nc2nnc(-c3ccccc3)cc21	3
Cc1ccc(-c2nc(CNC(=O)C[C@H]3CNCCO3)[nH]c2-c2ccccn2)cc1	23
FC(F)(F)c1cc(Oc2cc(Oc3ccc(Cl)c(C(F)(F)F)c3)nc(Oc3ccc(Cl)c(C(F)(F)F)c3)n2)ccc1Cl	2
COc1ccc(C(=O)N2CC[C@H](CC(=O)N3CCOCC3)C2)cc1	1
Cc1ccc(-c2noc(CCC(=O)NC[C@H]3CCCO3)n2)c(=O)n1C(C)C	0
C[C@@]12CCCCN1CCCc1c2[nH]c2ccccc12	-19
CC(C)COCn1cc(Br)c(=O)[nH]c1=O	-1
CCC(C#N)(CC)c1nc(-c2cc(N)nc3ccccc23)no1	8
O=C1C2CC=CCC2C(=O)N1CNc1ccc(Cl)cc1 (stereo not given)	-9
O=C(c1ccc(Cl)cc1)c1c[nH]c2c(F)cc(F)cc2c1=O	8
COc1cccc(NC(=O)C2=Cc3cc(Cl)cc(OC)c3OC=C2)c1	-2
Cc1nc2ccc(N(C)S(=O)(=O)c3cc(C(=O)O)cs3)cc2s1	12
COc1ccc(CNC(=O)Cn2c(=O)n(CCc3cccs3)c(=O)c3ccccc32)cc1	15
COc1cc(C)c2[nH]c3c(c(=O)c2c1)CN(CC(=O)Nc1ccc(C)c(F)c1)CC3	8
CCCCOc1ncccc1CNC(=O)N1CCn2nc(C)nc2C1	-1
Cc1nsc(N2CCN(CC(C)O)C(C)C2)n1 (stereo not given)	1
Cc1ncsc1CNc1nnc(CC(C)(C)C)o1	3
CCOC(=O)C(NC(=O)Cc1c(Cl)cccc1Cl)C(=O)OCC	5
CC1CCN(c2nccnc2Oc2ccc(C(=O)NCc3ccccc3Cl)cc2)CC1	48

Compound	% Inhibition [%]
COc1cccc2c(=O)c3c([nH]c12)CCN(CC(=O)NCc1ccccc1Cl)C3	37
CCOC(=O)c1cc(NC(=O)NCCS(C)(=O)=O)c(F)cc1C	-5
CCn1cc2c(n1)c(=O)n(Cc1ccc(C)cc1)c(=O)n2CC(=O)Nc1ccc(C)cc1C	-21
COc1cc(C)c2[nH]c3c(c(=O)c2c1)CN(CC(=O)Nc1ccc2c(c1)OCCO2)CC3	13
COc1ccc(S(=O)(=O)N(C2CCCCC2)C2CCCCC2)cc1	-11
CC1CCCCC1NC(=O)CN1CCN(Cc2cccc(Cl)c2)C1=O (stereo not given)	-4
CC(C)c1cccc(Nc2nc3ccncc3n(C(C)C)c2=O)c1	94
CC1CCN(C[C@H]2CCCCCN2C(=O)NCCc2ccccc2)CC1	40
Cc1cc(C)c(CNC(=O)c2c[nH]c3ncccc23)c(=O)[nH]1	4
Cc1occc1C(=O)NC1(c2ccccc2)CCOCC1	-6
Cc1nccc(NC(=O)C2CCC(F)(F)CC2)c1Cl	9
COc1cc(CNCc2ccccn2)ccc1OCc1ccc(Cl)cc1Cl	2
Cc1ccc(S(=O)(=O)Cc2nc3cc(C)c(C)cc3[nH]c2=O)cc1	2
COCCc1cc(NC(=O)Nc2sc(-c3ccccc3)nc2C)n(C)n1	16
COc1cccc(CCC(=O)N2CCN3CCC2C3)c1F (stereo not given)	-21
O=C1CCCN1CCc1nc(-c2cc(F)ccc2F)cs1	0
O=C(CN1CCN(Cc2ccccc2F)C1=O)NC1CCCCCCC1	-2
Cc1nn(-c2ccccn2)c(O)c1C(c1ccccc1)c1c(C)nn(-c2ccccn2)c1O	86
Clc1ccc(-c2onc3c2CCCC3)cc1	9
CC(C)(C)OC(=O)NCC1CCCCC1C(F)(F)F (stereo not given)	1
O=C(c1ccc(Cl)c(Cl)c1)N1CCCc2cc(S(=O)(=O)N3CCCC3)ccc21	-5
Cn1cc(Br)c(C(=O)N2c3ccnn3C(C(F)(F)F)CC2c2ccccc2)n1 (stereo not given)	10
Cc1cc(C)c2c(C(=O)N3CCN(C(=O)[C@H](C)O)CC3)cc(C3CC3)nc2c1	-11
CCOC(=O)c1nc[nH]c1-n1nc(C)cc1C	7
CCn1cc(S(=O)(=O)N2CC(Oc3cccc(-c4nc(C)no4)c3)C2)cn1	7

Compound	% Inhibition [%]
CCn1cc(C(=O)Nc2ccc(C(=O)N3CCCCC3)cc2)cn1	5
C[N+]12CCCCC1C(OC(=O)C1(c3ccccc3)CCCC1)CCC2 (stereo not given)	60
COc1cccc(-c2cc(C(=O)Nc3cc(Cl)ccc3C)c3c(C)nn(C)c3n2)c1	-12
Cc1cc(C)n(C(=O)Cn2nc(C(F)F)cc2C)n1	11
Cc1ccc(-n2nc(N3CCN(C(=O)Cc4ccc(F)cc4)CC3)ccc2=O)cc1	9
COC(=O)c1ncn2c1C(=O)N(Cc1ccccc1OC)[C@](C)(C(=O)NC1CCCCC1)C2	11
COc1ccc2cccc(NC(=O)c3cc(-c4cc(OC)c(OC)c(OC)c4)n[nH]3)c2n1	51
CC1(C2CCN(C(=O)c3c(Cl)cccc3Cl)CC2)OCCO1	4
COc1ccc(C(=O)Nc2ccc3c(c2)C(=O)Nc2cccnc2O3)cc1OC	26
c1ccc(C2(c3nnc(-c4ccncc4)o3)CCOCC2)cc1	4
Cc1c(S(=O)(=O)NCCn2nc(C(F)(F)F)cc2C)cnn1C	8
COCCCC(=O)Nc1cc(C)c(Br)cn1	8
CCCN1Cc2cccc(NS(=O)(=O)c3cc(C)ccc3Br)c2C1	5
O=C(NCCC1=CCCCC1)c1c(-c2ccccc2)nc2n1CCS2(=O)=O	-1
CC(C)[C@H](CN1CCOCC1)NC(=O)c1ncccn1	-1
CC(C)[C@@H]1CCc2ccccc2N1Cc1nc(N)nc(N(C)C)n1	6
CC1(C)CCc2ccccc2C1NC(=O)C1CC(=O)N(c2nccs2)C1 (stereo not given)	-6
CCc1ccccc1C(=O)NC[C@H]1CC[C@H](CN)CC1	6
CCOc1cc(Cl)c(Cl)c(C#N)c1OC(C)=O	6
O=C(Nc1ccccc1)c1ccc(Nc2ncc(-c3cccc(F)c3)cn2)cc1	-10
COc1ccc(CCNC(=O)c2cnn3c4c(cnc23)C[C@@H](C)CC4)cc1OC	4
N#CC1(c2ccccc2)c2ccccc2C(=O)c2ccccc21	-4
COCC[C@](C)(O)CNC(=O)Nc1ccccc1	5
CCCc1nc(CNc2cccc3c2N(C(C)=O)CC3)no1	-17
Cc1ccc(Cc2nc(N3CCCN(C(=O)CCc4ccccc4)CC3)c3cnn(-c4ccccc4)c3n2)cc1	10
